Test results reported in publication PMC4336329 (PLoS ONE, 2015).
About 2,200 (0.71%) of roughly 310,000 compounds showed an effect of 50% or more. The effect is printed as a negative number. This is one part of the list.

biological target: human ether-à-go-go-related gene (hERG) potassium channel (human, UniProt Q12809); assay: primary screen, population patch clamp on CHO cells stably expressing hERG
Sequence (Q12809 whole entry, looked up): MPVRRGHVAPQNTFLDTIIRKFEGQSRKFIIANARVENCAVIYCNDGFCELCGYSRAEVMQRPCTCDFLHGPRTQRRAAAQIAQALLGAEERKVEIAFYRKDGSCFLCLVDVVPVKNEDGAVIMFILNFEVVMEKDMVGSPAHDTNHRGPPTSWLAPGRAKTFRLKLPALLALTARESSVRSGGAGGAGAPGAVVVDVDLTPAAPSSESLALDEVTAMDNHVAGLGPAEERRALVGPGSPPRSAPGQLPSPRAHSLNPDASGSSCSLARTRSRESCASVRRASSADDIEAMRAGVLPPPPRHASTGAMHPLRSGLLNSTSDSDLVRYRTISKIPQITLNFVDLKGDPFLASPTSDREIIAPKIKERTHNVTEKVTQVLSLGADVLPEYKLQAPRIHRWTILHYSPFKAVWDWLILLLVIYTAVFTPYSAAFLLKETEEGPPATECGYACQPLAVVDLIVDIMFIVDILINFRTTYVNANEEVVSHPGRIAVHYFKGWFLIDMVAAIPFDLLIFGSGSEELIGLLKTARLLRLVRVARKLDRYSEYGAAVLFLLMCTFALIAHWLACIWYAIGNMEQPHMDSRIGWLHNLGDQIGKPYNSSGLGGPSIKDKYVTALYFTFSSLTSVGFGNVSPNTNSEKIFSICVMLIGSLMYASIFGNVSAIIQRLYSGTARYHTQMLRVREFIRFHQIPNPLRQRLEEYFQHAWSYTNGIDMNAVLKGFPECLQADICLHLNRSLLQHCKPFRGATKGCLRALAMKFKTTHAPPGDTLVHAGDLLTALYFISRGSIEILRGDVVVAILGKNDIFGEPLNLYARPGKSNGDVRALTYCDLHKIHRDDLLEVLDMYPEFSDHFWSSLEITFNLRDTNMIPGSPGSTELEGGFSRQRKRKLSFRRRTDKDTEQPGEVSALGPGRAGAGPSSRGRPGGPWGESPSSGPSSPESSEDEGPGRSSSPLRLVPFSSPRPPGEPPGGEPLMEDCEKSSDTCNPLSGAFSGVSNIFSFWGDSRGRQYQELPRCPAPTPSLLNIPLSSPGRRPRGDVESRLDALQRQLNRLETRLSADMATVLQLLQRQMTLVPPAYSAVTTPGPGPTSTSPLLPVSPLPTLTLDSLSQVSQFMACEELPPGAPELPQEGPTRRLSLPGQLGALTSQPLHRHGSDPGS

SMILES | hERG current change (%, negative = inhibition) at 1uM [%]
CC(=O)c1ccc(-c2ccc(C(=O)N(C)Cc3nc4ccccc4c(=O)[nH]3)o2)cc1 | 3.87
CCN(CC)C(=O)c1c(Cl)nc(C)c([N+](=O)[O-])c1C | 22.8
NC(=O)c1oc2ccccc2c1NC(=O)c1nc2ccccc2s1 | 14.2
Cc1ccc(Nc2c(-c3ccccn3)nc3ccc(C)cn23)cc1 | 3.51
NC(=O)C1=NOC(CNc2ncc(C(F)(F)F)cc2Cl)C1 (stereo not drawn) | 5.58
COC(=O)C[C@](O)(CCCC(C)(C)O)C(=O)O[C@@H]1C(OC)=C[C@]23CCCN2CCc2cc4c(cc2[C@H]13)OCO4 | 9.6
O=C(NCc1ccccc1)Nc1cccn(Cc2ccccc2)c1=O | -3.9
CCOC(=O)[C@H]1[C@H]2COc3ccc(Br)cc3[C@@H]2N2C(=O)c3ccc(Cl)cc3NC(=O)[C@@]12C | 7.45
O=c1cc(-c2ccccc2)nc2cc(-c3ccco3)[nH]n12 | 9.77
COc1cccc(N2CCN(Cc3nc4scc(-c5ccccc5)c4c(=O)[nH]3)CC2)c1 | 10.1
O=C(Nc1ccc2ccccc2n1)C1CCCCC1 | 4.51
CCC(OC(=O)c1ccco1)C(=O)NCc1ccc2c(c1)OCO2 (stereo not drawn) | 9.47
COC(=O)C1CCCCN1C(=O)c1cc(COc2cccc3cnccc23)on1 (stereo not drawn) | 7.94
COc1cc(CN2CCCC(C)C2)cc([N+](=O)[O-])c1O (stereo not drawn) | 9.99
COc1ccccc1CNC(=O)[C@@H](NC(=O)C1CCN(C(=O)[C@@H]2CCCN2)CC1)C(C)C | -2.41
O=C(C1=C[C@H](C2CCCCC2)C[C@H](OCCCCO)O1)N1CCOCC1 | 14.9
Cn1c(=O)c2c(SCC(=O)N3CCOCC3)nc(-c3ccccc3F)nc2n(C)c1=O | 9.63
COc1ccccc1-c1c(C)oc2c(CN3CCN(C)CC3)c(O)ccc2c1=O | 23
CCOc1ccccc1C(=O)OCC(=O)Nc1ccc(OC(F)F)cc1 | -10.3
CN(c1ccccc1C(=O)N1CCN(c2ccccc2)CC1)S(C)(=O)=O | 0.854
Br.COc1ccc(C2=CSC3=NCCN23)cc1F | -3.47
N=C1c2ccccc2CN1NC(=O)c1cccc(S(=O)(=O)N2CCOCC2)c1 | -10.3

SMILES | hERG current change (%, negative = inhibition) at 1uM [%]
CC1=C(Nc2ccc(C(=O)O)cc2)C(=O)c2ccccc2C1=O | 12.4
O=C(Cc1ccc(S(=O)(=O)N2CCOCC2)s1)OCc1ccc(Cl)cc1 | 4.81
COc1cc(NC(=O)c2ccccc2)c(OC)cc1NC(=O)Cc1ccccc1 | 8.02
CC(C)N(Cc1ccccc1)S(=O)(=O)N(C)C | 9.23
Clc1ccc(CO/N=C/c2cccs2)cc1 | 15.2
CC(=O)c1cccc(N/C=C\c2nnnn2-c2ccc(F)cc2)c1 | 5.26
O=C(c1cc(-c2cccc(Cl)c2)on1)N1CCCCCC1 | 9.62
COc1cc(C2=NOC(C(=O)NCc3ccc(F)cc3)C2)cc(OC)c1OC (stereo not drawn) | -3.57
Cc1ccc(C(=O)C2=C(O)C(=O)N(CC3CCCO3)C2c2ccccc2F)o1 (stereo not drawn) | 18.1
O=c1[nH]c2cc3c(cc2cc1CN(Cc1cccnc1)C(=S)NCc1ccco1)OCO3 | 11.7
COc1ccc(/C=C(\NC(=O)c2ccccc2)C(=O)OC[C@@H]2CCC[N+]3(C)CCCCC23)cc1OC.[I-] (stereo partly drawn) | 3.82
CC1(C)Cc2c(cnn2-c2ccc(F)cc2)C(NC(=O)CCN2CCCCO2)C1 (stereo not drawn) | -14.5
CCOC(=O)C(C)Sc1ncnc2c1nnn2-c1ccc(F)cc1 (stereo not drawn) | 8.8
O=C(c1c[nH]c2ccccc12)N1CCN(c2ccccc2)CC1 | 6.51
O=C(O)/C=C/C(=O)N1N=C(c2ccco2)CC1c1ccco1 (stereo not drawn) | 12.8
CNS(=O)(=O)c1ccc(NC(=O)Nc2ccc3c(c2)OCO3)cc1 | 18.3
COc1ncnc2c1cnn2-c1ccccc1 | 23.5
CC(=O)N1CCc2cc(S(=O)(=O)NC3CCCc4ccccc43)ccc21 (stereo not drawn) | 14.4
O=C(OCCN1CCCCC1)c1ccc(O)cc1 | -12
Cc1nn(CC(=O)N(C)C2CCC(C)CC2)c(C)c1S(=O)(=O)N(C)C (stereo not drawn) | 0.624
CCOc1ccc(C(=O)N2CCN(S(=O)(=O)c3cccs3)CC2)c(OCC)c1 | 7.18
Cc1ccc(NCC(=O)N/N=C/c2ccc(-c3cccc(C(F)(F)F)c3)o2)cc1 | 12.9

SMILES | hERG current change (%, negative = inhibition) at 1uM [%]
Cc1c(C)n(C(=O)CSc2nncn2C)c2ccccc12 | 4.96
COc1ccc(CCNC(=O)CNC(=O)Cn2cnc3sc(C)c(C)c3c2=O)cc1OC | 12.1
OCC1(Cc2ccccc2F)CCCN(Cc2c(F)ccc(F)c2F)C1 (stereo not drawn) | 1.91
CCOC(=O)C1(C)NC(c2ccco2)C2C(=O)N(c3ccc(C)cc3)C(=O)C21 (stereo not drawn) | 10.6
CC1=C(C(=O)Nc2ccc(C)cc2C)C(c2ccc([N+](=O)[O-])cc2)n2ncnc2N1 (stereo not drawn) | 13.6
COc1ccccc1/C=N/NC(=O)c1cc2c(OC)c(OC)ccc2[nH]1 | 13
COc1ccc(/C=N/Nc2nn3cnnc3c3ccccc23)cc1 | -3.29
CN1CCN(c2c(C#N)c(C(F)(F)F)nn2C)CC1 | 10.5
CC(C)(C)N1CC(c2nc3ccccc3n2CCOc2ccccc2)CC1=O (stereo not drawn) | 0.388
O=C(CNC(=O)c1cccs1)NCC(=O)OCc1ccccc1Cl | 9.53
O=C(N/N=C/c1cccc([N+](=O)[O-])c1)C1CC(=O)N(c2ccc(Cl)cc2)C1 (stereo not drawn) | -39.3
Nc1ccc(Sc2ccccc2Cl)nc1 | 0.8
COCCn1c(SC(C)C(=O)NCC2CCCO2)nc2sc3c(c2c1=O)CCC3 (stereo not drawn) | -0.616
Cc1ccc(S(=O)(=O)N2CCC(C(=O)OCC(=O)N3CC(=O)Nc4ccccc43)CC2)cc1 | 10
Cc1ccc(C(=O)N/C(=C/c2ccco2)C(=O)N2CCOCC2)cc1 | 8.19
COC(=O)c1nn(-c2ccc(C)cc2)ccc1=O | 8.92
Cc1ccc(C2CC(c3cccs3)=NN2S(=O)(=O)c2ccc(C)cc2)cc1 (stereo not drawn) | 13.6
C=CCOCCN(C)C1=NS(=O)(=O)c2cc([N+](=O)[O-])ccc21 | 4.63
COc1cc(N)c(Cl)cc1C(=O)OCC(=O)N1CCc2ccccc21 | -3.41
COc1ccccc1N1C(=O)C2C(c3ccc(F)cc3)NN(C(=O)c3ccc(C)cc3)C2C1=O (stereo not drawn) | 8.24
Cl.Clc1c(OCCCn2ccnc2)ccc2ccccc12 | 6.44
Cc1ccsc1/C=N/NC(=O)CNC(=O)c1ccccc1 | 13.6

SMILES | hERG current change (%, negative = inhibition) at 1uM [%]
CCOc1ccc(C(=O)N/N=C/c2ccccc2[N+](=O)[O-])cc1 | 12.7
CC(C)OCCCNC(=O)C1CC(=O)N(C2CCCCCCC2)C1 (stereo not drawn) | 13.6
Cc1ccc2nc(SCC(=O)Nc3nonc3C)[nH]c2c1 | 18.3
C(=N\Nc1nc(-c2ccccc2)cs1)/c1cccnc1 | -8.23
CCN(CC)S(=O)(=O)c1cc(NC(=O)C(C)N2CCN(c3ccccn3)CC2)ccc1C (stereo not drawn) | 4.16
CC1CCN(c2ccc(-c3ccc(NC(=O)C(F)(F)F)cc3)nn2)CC1 | 10.3
Cc1cc(NC(=O)CSc2nc(-c3ccco3)cc(C(F)(F)F)n2)no1 | 23.5
Fc1ccc(-c2nc3cnccn3c2NC2CCCC2)cc1 | 13.5
O=C(NCCc1nnc2ccc(SCC(=O)N3CCOCC3)nn12)c1ccccc1 | 13.7
CC(=O)OCN(C#N)c1nc(N(C)C)nc(N(C)C)n1 | 13.7
CCOC(=O)C1CCN(C(=O)Cn2cnc3sc(C)c(S(=O)(=O)N4CCCCC4)c3c2=O)CC1 | 5.45
COC(=O)CSc1nc(C)cc(C(F)(F)F)c1C#N | 6.47
NC(=O)C1CCCN(S(=O)(=O)c2ccc3ccccc3c2)C1 (stereo not drawn) | -7.42
O=[N+]([O-])c1ccc(P(=O)(Cc2ccccc2)c2ccccc2O)cc1 (stereo not drawn) | 18.1
NC(N)=N/N=C/c1ccc(OS(=O)(=O)c2ccccc2)cc1 | -10.7
Cl.c1ccc(Cc2ccc(OCCN3CCOCC3)cc2)cc1 | 14
N#CCCN(C(=O)COc1ccc(F)cc1Br)c1ccccc1F | 6.58
CCCCc1nc(C(N)=O)c2[nH]c(=O)n(-c3ccccc3F)c2n1 | 4.7
Cc1ccc(S(=O)(=O)N2c3ccccc3NC(=O)CC2C)cc1 (stereo not drawn) | 15.2
COc1ccc(Cl)cc1NC(=O)CN(C)C(=O)c1cc(=O)c2ccccc2o1 | -0.822
CSc1nnc(-c2ccncc2)n1/N=C/c1cn(-c2ccccc2)nc1-c1ccc(Cl)cc1 | 13.1
